Measurements as given in the supplement of paper PMC12217912.
The list shows a part of the results. The full chains were built here from the parent and the listed change. Values near 0.05 are background.

B1: TEV protease; numbered along this chain (parent)
chain: MGESLFKGPRDYNPISSSICHLTNESDGHTTSLYGIGFGPFIITNKHLFRRNNGTLVVQSLHGVFKVKDTTTLQQHLVDGRDMIIIRMPKDFPPFPQKLKFREPQREERICLVTTNFQTKSMSSMVSDTSCTFPSGDGIFWKHWIQTKDGQCGSPLVSTRDGFIVGIHSASNFTNTNNYFTSVPKNFMELLTNQEAQQWVSGWRLNADSVLWGGHKVFMVKPEEPFQPVKEATQL

Variants of: B1
Assay: raw area under fraction-flipped curve 0-4 h after induction (AUC4h, not background-subtracted), DNA-recorder readout of cleavage of the substrate (dimensionless); higher = more cleavage of the substrate by the protease variant
Conditions: temperature: 34 °C; time window: 0-4 h after rhamnose induction
Procedure: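 In vivo DNA recorder in E. coli TOP10(DE3) ΔrhaA at 34 °C. Each TEVp single-site mutant (parent TEVp 0) is paired with a single-site variant of the 7-mer TEVs (canonical ENLYFQ|S). The substrate sits between flexible linkers in a Bxb1-sfGFP-TEVs-SsrA fusion, so cleavage stabilises Bxb1 and speeds flipping of a recombination array, read by NGS. The value is the raw area under the fraction-flipped curve over 0-4 h after rhamnose induction (AUC4h), with ≥20 reads per time point. It is not background-subtracted; inactive controls average about 0.047.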
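Also: Bxb1 expression induced with 0.2% (w/v) L-rhamnose at OD600 near 0.5, cultures sampled hourly, flipped fraction per protease–substrate barcode pair counted by paired-end Illumina sequencing.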

Variant | area with substrate ENLAFQS | area with substrate ENLCFQS | area with substrate ENLDFQS | area with substrate ENLEFQS | area with substrate ENLFFQS | area with substrate ENLGFQS | area with substrate ENLHFQS | area with substrate ENLKFQS | area with substrate ENLLFQS | area with substrate ENLMFQS | area with substrate ENLNFQS | area with substrate ENLQFQS | area with substrate ENLRFQS | area with substrate ENLSFQS | area with substrate ENLTFQS | area with substrate ENLWFQS | area with substrate ENLIFQS | area with substrate ENLPFQS | area with substrate ENLVFQS
N177E | 0.0547 | 0.0474 | 0.0579 | 0.0699 | 0.0734 | 0.0674 | 0.0611 | 0.0759 | 0.0376 | 0.0717 | 0.0692 | 0.0339 | 0.0623 | 0.0584 | 0.0671 | 0.0733 |  |  | 
K120F | 0.0424 |  | 0.0696 | 0.0202 | 0.078 | 0.0512 | 0.0567 | 0.0631 | 0.0555 | 0.0601 | 0.0522 | 0.074 | 0.0803 | 0.0677 | 0.0616 |  | 0.0883 | 0.0624 | 
P104I | 0.0604 | 0.0688 | 0.067 | 0.0608 | 0.0643 | 0.0558 | 0.0537 | 0.0616 | 0.061 | 0.0565 | 0.0579 | 0.0539 | 0.057 | 0.0439 | 0.0378 |  | 0.0767 | 0.059 | 0.0732
T176N | 0.0669 | 0.0646 |  | 0.0679 | 0.072 | 0.0744 | 0.0655 | 0.0561 |  |  | 0.0621 | 0.0657 | 0.0607 | 0.0507 |  |  | 0.0672 | 0.0643 | 
N13V | 0.0632 | 0.0795 | 0.0649 | 0.0654 | 0.0787 |  | 0.0739 | 0.0743 | 0.0713 | 0.0899 | 0.0692 |  | 0.0818 | 0.063 | 0.0641 | 0.0675 | 0.0877 | 0.0491 | 0.079
S4D | 0.0648 | 0.0598 | 0.058 | 0.0616 | 0.117 |  | 0.073 | 0.0875 | 0.0753 | 0.0637 | 0.073 |  | 0.0777 | 0.0611 |  | 0.0868 |  | 0.0468 | 
M88Y | 0.0282 | 0.063 | 0.045 |  | 0.0923 | 0.0405 | 0.0639 | 0.079 | 0.0198 | 0.0478 | 0.0204 |  |  |  |  | 0.0517 |  |  | 
C152M | 0.0647 |  | 0.0625 |  | 0.0751 |  | 0.054 |  | 0.0701 |  |  |  |  | 0.0468 |  |  | 0.066 | 0.0918 | 
C152D | 0.0793 | 0.0647 | 0.0642 | 0.073 |  |  | 0.0612 | 0.0677 |  |  |  |  | 0.0525 |  |  | 0.0641 | 0.0663 |  | 
D27P | 0.0648 | 0.0691 | 0.0645 | 0.063 | 0.0689 |  | 0.0626 | 0.0614 | 0.0502 |  | 0.0564 |  | 0.0496 | 0.0582 |  | 0.0854 |  | 0.0399 | 0.0516
R160Y | 0.0781 | 0.0973 | 0.0469 | 0.0644 | 0.0898 |  | 0.0698 | 0.0769 | 0.136 |  | 0.0544 |  | 0.0741 | 0.0697 | 0.0598 |  | 0.118 |  | 0.078
K120H | 0.0648 | 0.0476 | 0.0622 |  | 0.0891 |  | 0.074 | 0.0768 |  |  |  | 0.0716 | 0.0801 | 0.0711 |  | 0.0706 |  |  | 0.099
P184S | 0.0622 |  | 0.0609 | 0.026 | 0.0752 | 0.0521 | 0.0591 | 0.0752 | 0.089 |  | 0.0767 | 0.0654 | 0.0503 | 0.0563 |  | 0.0611 | 0.0517 | 0.0464 | 0.0826
H168E | 0.0565 | 0.069 | 0.0582 | 0.0678 | 0.0566 |  | 0.0641 | 0.0548 |  | 0.0745 | 0.0628 |  | 0.0647 | 0.0836 |  |  | 0.0809 | 0.0577 | 0.0559
C152W | 0.0565 | 0.0761 | 0.0653 |  | 0.075 | 0.0594 | 0.0601 | 0.0692 | 0.0705 |  | 0.0577 | 0.0515 | 0.0807 | 0.036 |  |  |  | 0.0496 | 0.0596
C152G | 0.0547 |  | 0.0699 | 0.0523 | 0.0916 | 0.058 | 0.0641 | 0.0679 | 0.0694 | 0.0605 | 0.0617 |  | 0.0793 |  | 0.0573 | 0.0359 | 0.0514 | 0.0605 | 
E103G | 0.0759 |  | 0.0625 | 0.0519 | 0.0767 | 0.0744 | 0.0599 | 0.065 | 0.0589 | 0.0704 | 0.0584 | 0.0648 | 0.0682 | 0.0726 |  | 0.058 | 0.0697 | 0.0661 | 
T176M | 0.0676 | 0.067 | 0.0657 |  |  | 0.0452 | 0.0427 | 0.0711 |  |  | 0.0659 | 0.0885 |  | 0.0522 |  | 0.0656 | 0.0588 | 0.0644 | 0.0335
S32A | 0.0646 | 0.0692 | 0.0627 | 0.0708 | 0.0861 | 0.0648 | 0.0609 | 0.0561 | 0.0693 |  | 0.0576 | 0.0747 | 0.0704 |  |  | 0.0706 | 0.0776 |  | 
D208V | 0.0427 | 0.0592 | 0.0545 | 0.0667 | 0.0691 | 0.0582 | 0.0634 | 0.0607 | 0.0548 |  | 0.0579 |  | 0.0676 |  |  |  |  |  | 0.0669
N24Y | 0.0632 |  | 0.0629 |  | 0.0747 |  | 0.0627 |  | 0.0661 | 0.073 | 0.0629 | 0.0563 |  | 0.0703 | 0.0906 | 0.0478 | 0.0703 | 0.0788 | 0.0843
G28T | 0.0701 |  |  | 0.0509 | 0.0683 |  | 0.0654 | 0.0615 | 0.0667 | 0.0852 | 0.0668 | 0.104 |  | 0.0551 |  | 0.0683 | 0.0781 | 0.0389 | 
P184C | 0.0508 |  |  | 0.0623 | 0.0964 | 0.069 | 0.0653 | 0.0691 | 0.0539 | 0.0523 | 0.0695 |  |  |  |  | 0.0568 | 0.0722 | 0.0617 | 0.0769
E224C | 0.0662 |  | 0.0594 | 0.0588 | 0.0833 | 0.0705 | 0.0755 | 0.0674 | 0.0745 |  | 0.0633 | 0.073 | 0.0624 | 0.0919 |  | 0.0627 | 0.0861 | 0.0546 | 0.0799
D128K | 0.0737 | 0.0692 |  |  | 0.0871 |  | 0.0662 | 0.0692 | 0.0719 |  | 0.0565 |  |  |  |  | 0.0763 | 0.0742 |  | 0.0771
